Values of other authors, collected in PMC11956011, “An Amazing 30-Year Journey around the DABO Family: A Medicinal Chemistry Lesson on a Versatile Class of Non-nucleoside HIV-1 Reverse Transcriptase Inhibitors” (Journal of Medicinal Chemistry, 2025).
Like-named read-outs stand apart in the source and are kept apart here.

Biological target: K103N HIV-1 RT
Conditions: for Fold-resistance K103N RT (ID50): Fig 10, in brackets

O=c1cc(Cc2ccccc2)nc(NCCCCO)[nH]1 [compound 23, 6-benzyl-N^2-(4-hydroxybutyl)isocytosine]
Ki (read-out: RT assay, Ki: K103N, Fig 4): 840 µM

CCCCSc1nc(C(C)c2c(F)cccc2Cl)cc(=O)[nH]1 (stereo not drawn) [compound 39]
ID50: K103N (Fig 5): 2.2 µM

CC(c1cc(=O)[nH]c(SC2CCCC2)n1)c1c(F)cccc1Cl (stereo not drawn) [compound 40]
ID50: K103N (Fig 5): 1.8 µM

Cc1c(C(C)c2c(F)cccc2Cl)nc(SC(C)C)[nH]c1=O (stereo not drawn) [compound 41]
ID50: K103N (Fig 5): 1.4 µM

CCCSc1nc(C(C)c2c(F)cccc2Cl)c(C)c(=O)[nH]1 (stereo not drawn) [compound 42]
ID50: K103N (Fig 5): 1.5 µM

Cc1c(C(C)c2c(F)cccc2Cl)nc(SC2CCCC2)[nH]c1=O (stereo not drawn) [compound 43]
ID50: K103N (Fig 5): 1.3 µM

COc1ccc(CSc2nc(Cc3c(Cl)cccc3Cl)c(C)c(=O)[nH]2)cc1 [compound 76]
ID50: K103N (Fig 9): 102 µM

COc1ccc(CCSc2nc(Cc3c(Cl)cccc3Cl)c(C)c(=O)[nH]2)cc1 [compound 77]
ID50: K103N (Fig 9): 3.2 µM

COc1ccc(CCCSc2nc(O)c(C)c(Cc3c(Cl)cccc3Cl)n2)cc1 [compound 78]
ID50: K103N (Fig 9): 0.5 µM

COc1ccc(CSc2nc(O)c(C)c(Cc3c(F)cccc3F)n2)cc1 [compound 79]
ID50: K103N (Fig 9): 3.5 µM

Cc1c(Cc2c(F)cccc2F)nc(Sc2ccccc2)[nH]c1=O [compound 80]
ID50: K103N (Fig 9): > 400 µM

Cc1c(Cc2c(F)cccc2F)nc(Sc2ccc(Cl)cc2)[nH]c1=O [compound 81]
ID50: K103N (Fig 9): > 400 µM

COc1ccncc1Sc1nc(Cc2c(Cl)cccc2Cl)c(C)c(=O)[nH]1 [compound 82]
ID50: K103N (Fig 9): > 400 µM

CCc1c(Cc2c(Cl)cccc2Cl)nc(SCC(=O)c2ccccc2)[nH]c1=O [compound 101]
ID50: K103N (Fig 10): 1.88 µM | Fold-resistance K103N RT (ID50): 26

CC(C)c1c(Cc2c(Cl)cccc2Cl)nc(SCC(=O)c2ccccc2)[nH]c1=O [compound 102]
ID50: K103N (Fig 10): 27.7 µM | Fold-resistance K103N RT (ID50): 894

CCc1c(Cc2c(F)cccc2Cl)nc(SCC(=O)c2ccc(F)cc2)[nH]c1=O [compound 103]
ID50: K103N (Fig 10): 1.64 µM | Fold-resistance K103N RT (ID50): 50

CCc1c(Cc2c(F)cccc2F)nc(SCC(=O)c2ccccc2)[nH]c1=O [compound 104]
ID50: K103N (Fig 10): 3.7 µM | Fold-resistance K103N RT (ID50): 86
